The whole screen tested about 45,000 compounds, of which about 65 (0.1%) were called active. The call rests on the fitted dose curve; in most records, active means well fitted activation curve with a large enough effect; inconclusive means small, poorly fitted or top-dose-only effect; inactive means no such curve, though single readings can be large or run the other way. The list shows a part of the results. Peptide text beside a SMILES is read from it.
Molecular target: Galactocerebrosidase (Homo sapiens) (UniProt P54803)
UniProt P54803, sequence (P54803 whole entry, looked up): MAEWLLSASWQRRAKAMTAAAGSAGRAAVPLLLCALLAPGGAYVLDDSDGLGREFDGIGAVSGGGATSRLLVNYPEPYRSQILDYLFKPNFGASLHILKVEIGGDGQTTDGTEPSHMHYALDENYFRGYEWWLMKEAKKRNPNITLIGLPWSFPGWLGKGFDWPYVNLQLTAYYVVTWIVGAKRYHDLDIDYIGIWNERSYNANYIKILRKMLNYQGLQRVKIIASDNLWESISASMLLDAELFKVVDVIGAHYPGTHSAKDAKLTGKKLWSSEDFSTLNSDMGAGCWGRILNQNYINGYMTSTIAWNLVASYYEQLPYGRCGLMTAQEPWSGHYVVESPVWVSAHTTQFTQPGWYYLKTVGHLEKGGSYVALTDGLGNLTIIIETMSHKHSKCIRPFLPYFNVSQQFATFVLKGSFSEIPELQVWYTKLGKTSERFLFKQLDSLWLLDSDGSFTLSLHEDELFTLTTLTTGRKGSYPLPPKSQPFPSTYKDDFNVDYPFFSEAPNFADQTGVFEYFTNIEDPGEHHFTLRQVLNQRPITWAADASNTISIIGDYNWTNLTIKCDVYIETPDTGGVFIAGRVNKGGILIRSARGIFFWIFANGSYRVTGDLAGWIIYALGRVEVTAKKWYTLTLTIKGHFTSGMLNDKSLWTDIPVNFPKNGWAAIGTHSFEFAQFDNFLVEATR
Experiment: A Novel Cell-Based Assay to Identify Small Molecules for B -Galactocerebrosidase; further: 0% is about no effect; nearly all actives have a fitted effect of over 65% in size
Details: 145M-Twi-hGALC-G270D cells (Twitcher mouse brain line with human GALC G270D), HMU-beta-Gal fluorescence, 48 h; series mostly up to 57.5 µM; activation: at the top concentration
Summary of the method: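 Live 145M-Twi cells (Twitcher mouse brain-derived, GALC-null) stably expressing human GALC-G270D, with a wild-type GALC line, were compound-treated. Residual GALC activity was then read as fluorescence from 0.1 mM final HMU-β-gal at pH 5.2; higher signal means activation.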

activation, inactive:
CCOC(=O)c1cc(-c2ccccc2)n(CCCC(=O)Nc2ccc(C)cc2Cl)c1C -4.05%
COc1cccc(NC(=O)c2nnn(Cc3ccc(OC)c(Br)c3)c2N)c1 -4.02%
CCc1nn2c(=O)cc(COC(=O)C3CCCCC3)nc2s1 -7.28%
Cc1cc(C)c(NS(=O)(=O)c2cc(-c3cnc(C4CC4)o3)ccc2C)c(C)c1 -15.3%
CC(=O)N1CCN(c2ccc(O)cc2)CC1 -11.3%
COc1ccc(CNC(=O)C2CCN(S(=O)(=O)c3ccc4nc5c(c(C(=O)O)c4c3)CC(C)CC5)CC2)cc1 (stereo unspecified) 2.07%
CCc1ccc(NC(=O)C2CCCN(S(=O)(=O)c3cccc4nonc34)C2)cc1 (stereo unspecified) -8.22%
CCOc1ccc(NC(=O)Cn2cnc3c(oc4ccccc43)c2=O)cc1 -12.9%
CN1C(=O)Cc2cc(S(=O)(=O)CCC(=O)N3CCN(c4cccc(Cl)c4)CC3)ccc21 -20.4%
COc1cc(-c2noc(C3CC(=O)N(c4cc(C)ccc4C)C3)n2)cc(OC)c1OC (stereo unspecified) -13.5%
Cc1ccsc1CCN1C(=O)N(c2ccc(F)cc2)C(=O)C1CC(=O)Nc1ccccc1 (stereo unspecified) -5.33%
COc1cccc(NS(=O)(=O)c2cc3c4c(c2)C(C)C(=O)N4CCC3)c1 (stereo unspecified) -9.98%
CCC(C)NC(=O)c1ccc2c(c1)N=C(C)c1cc(C)ccc1S2 (stereo unspecified) -7.08%
COC(=O)[C@H](Cc1ccccc1)NC(=O)[C@@H](N)CC(=O)O (H-Asp-Phe-OMe) -13.4%
Cc1ccc2c(=O)cc(C(=O)Nc3c(C(=O)c4ccccc4)oc4ccccc34)oc2c1C 0.628%
CC(C)(C)OC(=O)N1CCC(c2c(C(=O)NCc3ccccn3)cnn2-c2ccc(F)cc2)CC1 -1.61%
Cc1cc(C)c2c(=O)cc(C(=O)Nc3ccc(S(=O)(=O)Nc4onc(C)c4C)cc3)oc2c1 -14.3%
COc1ccc(-n2nnc(C(=O)Nc3ccccc3F)c2N)cc1 -13%
COc1cccc(NC(=O)C(=O)NCCc2csc3nc(-c4ccccc4C)nn23)c1 -5.66%
CCc1ccccc1N(c1nc(-c2ccc(OC)c(OC)c2)no1)c1nc(-c2ccc(OC)c(OC)c2)no1 -14.3%
CCN1C(=O)c2ccccc2Sc2ccc(NC(=O)Cc3ccc(OC)cc3)cc21 -17.4%
CCOc1ccc(NCc2cccn2-c2nnc(N3CCC(C(=O)NCc4cccc(OC)c4)CC3)s2)cc1 -11.8%
CC(C)CC(=O)Nc1nnc2n1CCS2 -4.15%
CCCn1cc(S(=O)(=O)c2cc(C)ccc2C)c(=O)c2cc(F)c(N3CCCCCC3)cc21 -43.8%
COc1ccc(-c2cc(-c3ccccc3)nc3c2COc2ccccc2-3)cc1 -0.585%
Cc1cccc(CCNC(=O)c2ccc3c(c2)nc2n3CCCCC2)c1 -7.16%
Cc1nc2c(-c3ccc(F)cc3)c(C)nn2c(C)c1CCC(=O)N1CCN(c2ccc(F)cc2)CC1 -21.3%
Cc1oc(-c2cccc(Cl)c2)nc1CSc1nnc(C)n2c1cc1occc12 -13.1%
CC(=O)c1cc(-c2ccccc2)n(CCC(=O)NCCc2ccccc2)c1C -13%
CC(=O)NCc1nc2cccnc2n1Cc1ccccc1 1.43%
COC(=O)c1c(NC(=O)c2nc(SC)ncc2Cl)sc2c1CCCC2 -2.24%
Cc1ccc(Cc2nc3ccccc3nc2SCC(=O)NCCc2ccccc2)cc1 -1.21%
Cc1cccc(Cc2c(C)nc3nc(SCC(=O)NCc4ccc(F)cc4)nn3c2C)c1 -17.1%
C/C(=C1\CCOC(=O)S1)N(C=O)Cc1cnc(C)nc1N -3.5%
CCc1cccc(C)c1NC(=O)Cn1c(=O)n(-c2cccc(C)c2)c(=O)c2c1c1cc(C)ccc1n2C -18.5%
COc1ccccc1N1CCN(C(=O)Cn2cnc3sc(C)c(S(=O)(=O)N4CCC(C)CC4)c3c2=O)CC1 -5.63%
COc1ccc(Cl)cc1N(C)C(=O)Cc1noc2ccc(C)cc12 -13.1%
COc1cccc(-c2nc(SCc3ccc(C)cc3)n3[nH]c(=O)cc3n2)c1 -5.78%
CC(C)(C)OC(=O)N1CCC(c2c(C(=O)N3CCC(c4ccccc4)C3)cnn2-c2ccc(Cl)cc2)CC1 (stereo unspecified) -14.9%
Cc1ccc(C)c(N2CCN(c3nc4ccc(Cl)cc4n4cnnc34)CC2)c1 10.4%
CCOC(=O)c1c(C)oc2ncnc(N3CCN(c4ccccc4)CC3)c12 -20.8%
O=[N+]([O-])c1ccc(S(=O)(=O)N2CCn3cccc3C2c2ccccc2F)cc1 (stereo unspecified) -19.6%
CC(NC(=O)C1CCN(S(=O)(=O)c2ccc3c(c2)oc(=O)n3C)CC1)c1ccccc1 (stereo unspecified) -14.8%
CN(C(=O)c1c2c(nc3ccccc13)C(=O)N(C1CCCCC1)C2)c1ccc(F)cc1 -12.4%
COC(=O)c1c(SCC(=O)Nc2cccc(Cl)c2C)[nH]c2ccccc2c1=O -15.5%
Cc1ccc(S(=O)(=O)NCCc2csc3nc(-c4ccccc4F)nn23)cc1C -8.58%
Cc1ccc(-c2cc3c(n2-c2ccc(F)cc2)CC(C)(C)CC3=O)cc1 -13.5%
Cc1ccccc1OCc1nnc(SCc2cc(=O)c3ccc(C)c(C)c3[nH]2)n1C -2.81%
COc1ccccc1-c1nc(S(=O)(=O)c2ccccc2)c(N2CCC(C)CC2)o1 -22.8%
COc1ccc(Nc2nc3ccccc3nc2NS(=O)(=O)c2ccc(Cl)cc2)cc1OC -35.6%
COc1ccccc1CCNC(=O)C(=O)NCC(c1ccco1)S(=O)(=O)c1ccccc1 (stereo unspecified) -17%
Cc1cccc(NC(=O)CSc2nc3ccccc3c3nc(CCc4c(C)n[nH]c4C)nn23)c1 -7.18%
CCC(C(=O)NCc1cccc(Br)c1)n1nc(C)c2c(C)n(-c3ccccc3)nc2c1=O (stereo unspecified) -13.8%
CC(=O)Nc1ccc(NC(=O)c2cnn(-c3ccccc3)c2C2CCN(C(=O)OC(C)(C)C)CC2)cc1 -9.03%
O=S(=O)(Nc1cccc(F)c1)c1ccc2[nH]c3c(c2c1)CCCCC3 -9.22%
CCOC(=O)c1cccc(NC(=O)CSc2nc3cc4ccccc4cc3[nH]2)c1 -18.1%
CC(C)c1cnc2c(c1SCC(=O)O)c(=O)n(C)c(=O)n2C -13.4%
NS(=O)(=O)c1cc(C(=O)NN2C[C@H]3[C@H]4CCC(C4)[C@H]3C2)ccc1Cl -17.7%
COc1cc(OC)cc(C(=O)Nc2ccc3c(c2)OCCO3)c1 -14%
O=C(CNC(=O)c1ccccc1F)OCc1cc(=O)n2nc(C3CC3)sc2n1 -11.9%
CCOc1ccccc1Nc1nnc(-c2cc3cc(Cl)ccc3oc2=O)s1 -16.5%

Reference: PubChem BioAssay AID1159614 (National Center for Advancing Translational Sciences (NCATS), 2016)
